The whole screen tested about 390,000 compounds, of which about 150 (0.038%) were called active. The inconclusive results got no clear call from the source; some entries with a clear call stand among them for comparison. Calls follow the shape of the dose curve; as a rule, active = well fitted inhibition curve with a large enough effect; inconclusive = small, poorly fitted or top-dose-only effect; inactive = no such curve, though single readings can be large or run the other way. Where the call is inconclusive, the potency comes from a doubtful curve fit.
biological target: Regulator of G-protein signaling 4 (Homo sapiens) (UniProt P49798); experiment: Inhibitors of Regulator of G Protein Signaling (RGS) 4: qHTS; details: Transcreener GDP fluorescence polarization, RGS4-accelerated GTP hydrolysis; series mostly up to 114 µM; also: nearly all actives have a fitted effect of over 75% in size
Chain of UniProt P49798 (P49798 whole entry, looked up): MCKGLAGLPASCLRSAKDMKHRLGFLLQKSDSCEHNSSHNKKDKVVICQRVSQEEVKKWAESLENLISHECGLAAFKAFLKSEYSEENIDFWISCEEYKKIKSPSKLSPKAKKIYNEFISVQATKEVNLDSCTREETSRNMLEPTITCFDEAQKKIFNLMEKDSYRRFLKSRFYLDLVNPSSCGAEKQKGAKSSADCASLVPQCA
Procedure, shortened: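 MLSMR compounds (23 nl, pin-transferred) preincubated 10 min at room temperature with a 500nM (2x) first reagent, then RGS4 at 900nM (2x) plus Transcreener GDP mix added; fluorescence polarization (620/688 nm) read before and after 90 min at 30 °C.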
% is scaled to controls: 0 for no effect and ±100 for the full control effect; potency is read from the fitted curve at half-maximal effect; tags tell the direction and shape of the fitted curve.

Row | Structure (SMILES) | Potency | activity change, negative = inhibition
1 | CC1(C)CC(=O)C(C(c2ccccc2F)C2C(=O)CC(C)(C)CC2=O)C(=O)C1 | inconclusive: 50.1 µM [inhibitor, partial curve, poor fit] | 
2 | COc1ccccc1OCC(=O)N/N=C/C=C/c1ccc([N+](=O)[O-])o1 | inactive | 
3 | O=C(O)[C@H](O)[C@@H](O)C(=O)O | inactive | 
4 | COc1ccc(C(=O)NC(=S)N2CCC(C)CC2)cc1 | inconclusive: 89.1 µM [inhibitor, single point] | 
5 | COc1ccc(-c2nc3ccccc3c(=O)n2O)cc1 | inactive | 
6 | Cc1ccc(/C=C2\CCC3=C2OC(N)=C(C#N)C3c2ccc(C)cc2)cc1 (stereo unspecified) | inactive | 
7 | COc1cc(C2NC(=S)NC(O)(C(F)(F)F)C2C(=O)c2cccs2)cc(OC)c1O (stereo unspecified) | inconclusive: 35.5 µM [inhibitor, full curve, poor fit] | 
8 | COC(=O)c1cc(C)nc(Sc2ccccc2N)n1 | inconclusive: 31.6 µM [inhibitor, partial curve, poor fit] | 
9 | COc1ccc(S(=O)(=O)NCC2(N3CCOCC3)CCCCC2)cc1OC | inactive | 
10 | Cc1cccc(C)c1NC(=S)/N=C/N(C)C | inconclusive: 50.1 µM [inhibitor, partial curve, poor fit] | 
11 | Cc1cccc(N2CCN(c3ccc(NC(=O)/C=C\C(=O)O)cc3)CC2)c1 | inconclusive: 50.1 µM [inhibitor, partial curve, poor fit] | 
12 | Cc1ccc(Nc2nc(CSc3nnnn3-c3ccccc3)cs2)cc1 |  | inactive: 1.79% [at 11.4 µM]
13 | COCCN(CC(=O)Nc1cccc(C)c1C)C(=O)c1cc2c(s1)CCC2 | inactive | 
14 | Cc1cccn2cc(-c3cccc(NC(=O)c4cccs4)c3)nc12 | inconclusive: 50.1 µM [inhibitor, single point] | 
15 | Cc1ccc(NC(=O)c2cc(NC(=O)c3ccco3)ccc2N2CCOCC2)cc1 | inactive | 
16 | O=C(CN1C(=O)c2ccccc2Sc2ncccc21)Nc1cccc(C(F)(F)F)c1 | inactive | 
17 | COc1ccc(Nc2cc(C)c3cc(NC(=O)COc4cccc(C)c4)ccc3n2)cc1 | inactive | 
18 | CC(=O)N(c1ccc2oc(=O)sc2c1)S(=O)(=O)c1cccs1 | inconclusive: 79.4 µM [inhibitor, partial curve, poor fit] | 
19 | O=C(Nc1ccc2ccccc2c1)c1ccc2[nH]c(=O)c(=O)[nH]c2c1 | inconclusive: 79.4 µM [inhibitor, single point] | 
20 | CCCCCn1c(CN(C)Cc2ccccc2)nc2c1c(=O)n(C)c(=O)n2C | inactive | 
21 | CC1C(=O)CC(c2ccccc2)N(C)C1c1ccccc1 (stereo unspecified) | inactive | 
22 | CC(=O)N1CCc2c(sc3c2c(=O)n(Cc2ccccc2)c(=O)n3Cc2ccccc2Cl)C1 | inactive | 
23 | COc1ccc(N2C(=O)N3[C@H](c4cccc(C)c4)[C@@H]4C(=O)N(Cc5ccccc5)C(=O)[C@@H]4[C@]3(Cc3ccccc3)C2=O)cc1 | inactive | 
24 | C=C1CC2(OC1=O)c1ccccc1CCc1ccccc12 | inconclusive: 50.1 µM [inhibitor, partial curve, poor fit] | 

Row | Structure (SMILES) | Potency | activity change, negative = inhibition
25 | COc1ccc(-c2nc3c4ccccc4n(CC(=O)N4CCN(c5ccccc5F)CC4)c(=O)n3n2)cc1 | inactive | 
26 | CCOC(=O)c1ccccc1NC(=O)CSc1cn(CC(=O)N2CCCCCC2)c2ccccc12 | inactive | 
27 | CSc1nc(C)c2c(n1)N(c1ccc(F)cc1)CC2 | inactive | 
28 | CCN(CC1COc2ccccc2O1)C(=O)CN1C(=O)NC(C)(c2ccc(C)cc2)C1=O (stereo unspecified) | inactive | 
29 | CCOc1ccc(CNC(=S)N/N=C/c2ccc(OC)c(OC)c2)cc1 | inactive | 
30 | CN1C(=S)N(c2cccnc2)C(=O)/C1=C\c1ccc(C(C)(C)C)cc1 | inconclusive: 79.4 µM [inhibitor, partial curve, poor fit] | 
31 | CCC1Nc2ncnc(N3CCCCC3)c2N(Cc2ccc(Cl)cc2)C1=O (stereo unspecified) | inactive | 
32 | CN(C)/C=C/C(=O)c1ccc(S(=O)c2ccccc2)cc1 (stereo unspecified) | inconclusive: 50.1 µM [inhibitor, partial curve, poor fit] | 
33 | CCCc1cc2c(c(NC(C)=O)n1)c(=O)oc1ccccc12 | inconclusive: 89.1 µM [inhibitor, single point] | 
34 | Cc1sc(N)c(C(=O)c2ccccc2)c1C | inconclusive: 50.1 µM [inhibitor, partial curve, poor fit] | 
35 | O=C(CC(n1cncn1)C(Cl)(Cl)Cl)c1ccc([N+](=O)[O-])cc1 (stereo unspecified) | inconclusive: 28.2 µM [inhibitor, full curve, poor fit] | 
36 | CCOc1ccc(CCNC(=O)CSC(=S)N2CCCC2)cc1OCC | inconclusive: 79.4 µM [inhibitor, partial curve, poor fit] | 
37 | COc1ccccc1C1CC(c2c(-c3ccccc3)c3cc(Cl)ccc3[nH]c2=O)=NN1S(C)(=O)=O (stereo unspecified) | inactive | 
38 | Cc1nn(Cc2ccccc2Cl)c2sc(C(=O)Nc3nccs3)cc12 | inactive | 
39 | COc1ccccc1NC(=O)COC(=O)c1ccc2c(c1)OCCO2 | inconclusive: 44.7 µM [inhibitor, partial curve, poor fit] | 
40 | COc1ccc(N2CCN(C(=O)CCNC(=O)c3ccc(Br)cc3)CC2)cc1 | inconclusive: 100 µM [inhibitor, single point] | 
41 | CC(=O)C1=C(C)OC(N)=C(C#N)C1c1cccc([N+](=O)[O-])c1 (stereo unspecified) | inconclusive: 50.1 µM [inhibitor, partial curve, poor fit] | 
42 | COc1ccc(CCNc2oc(COc3ccc(F)cc3)nc2C#N)cc1 | inactive | 
43 | COc1ccc(/C(=C/Nc2cccc(Br)c2)C(C)=O)cc1OC | inconclusive: 39.8 µM [inhibitor, partial curve, poor fit] | 
44 | Cc1ccc2cccc(NC(=S)NC(=O)c3ccccc3)c2n1 | inconclusive: 50.1 µM [inhibitor, partial curve, poor fit] | 
45 | O=C(O)CCc1ccc(-c2ccccc2)o1 | inconclusive: 28.2 µM [inhibitor, full curve, poor fit] | 
46 | Cc1cccc(C)c1N(CC(=O)Nc1cc(Cl)ccc1Oc1ccccc1)S(C)(=O)=O | inactive | 
47 | CC1CCCC(C)N1CCCNC(=O)Cn1ncc2c3ccccc3n(C)c2c1=O (stereo unspecified) | inactive | 
48 | Cc1cc(NS(=O)(=O)c2ccc(NC(=O)C(C(C)C)N3C(=O)c4ccccc4C3=O)cc2)nc(C)n1 (stereo unspecified) | inactive | 

Row | Structure (SMILES) | Potency | activity change, negative = inhibition
49 | CN(C)N1C(N)=C(C#N)C(c2cccs2)C2=C1CCCC2=O (stereo unspecified) | inconclusive: 44.7 µM [inhibitor, partial curve, poor fit] | 
50 | CCN(CC)S(=O)(=O)c1ccc(O)c(NC(=O)c2cc(-c3cc(OC)c(OC)c(OC)c3)nc3ccccc23)c1 | inconclusive: 79.4 µM [inhibitor, single point] | 
51 | COCCNc1oc(-c2ccc(Cl)cc2)nc1C#N | inactive | 
52 | CCCCn1c(N)c(N(CCC(C)C)C(=O)CSc2nc3ccccc3n2C)c(=O)[nH]c1=O | inconclusive: 70.8 µM [inhibitor, partial curve, poor fit] | 
53 | Cc1ccc(CN2C(=O)C(=O)c3cc(C)ccc32)cc1 | inactive | 
54 | C=CCOc1ccc(CNc2ccc3[nH]c(=O)[nH]c3c2)cc1OC | inconclusive: 17.8 µM [inhibitor, full curve, poor fit] | 
55 | COc1ccc(S(=O)(=O)N(CCCN2CCOCC2)Cc2cccc3ccccc23)cc1 | inactive | 
56 | COc1ccc(Nc2nc(-c3cccs3)cs2)cc1 | inconclusive: 70.8 µM [inhibitor, partial curve, poor fit] | 
57 | O=c1cc(CO)oc(C(Nc2ccccn2)c2ccccc2Cl)c1O (stereo unspecified) | inconclusive: 79.4 µM [inhibitor, single point] | 
58 | CN(CC(=O)Nc1ccccc1Cl)C(=O)CSC(=S)N1CCCC1 | inactive | 
59 | O=C(O)CCn1cc(/C=C/C(=O)c2ccc(Cl)cc2)c(-c2cccc(Br)c2)n1 | inconclusive: 79.4 µM [inhibitor, partial curve, poor fit] | 
60 | O=C(CSc1nc2ccccc2c2nc(-c3ccccc3)nn12)Nc1ccc(F)cc1 | inactive | 
61 | CNC(=O)[C@H]1O[C@@H](n2cnc3c(NCc4cccc(I)c4)nc(Cl)nc32)[C@H](O)[C@@H]1O | inconclusive: 0.106 µM [inhibitor, full curve, poor fit] | 
62 | N=c1c(S(=O)(=O)c2ccc(Cl)cc2)cc2c(=O)n3ccccc3nc2n1CC1CCCO1 (stereo unspecified) | inactive | 
63 | Cc1cc(/C=N/NC(N)=S)c(C)n1-c1cccc(Cl)c1 | inconclusive: 50.1 µM [inhibitor, partial curve, poor fit] | 
64 | O=C(c1ccco1)N1CCN(S(=O)(=O)c2ccccc2[N+](=O)[O-])CC1 | inconclusive: 50.1 µM [inhibitor, partial curve, poor fit] | 
65 | C#CCSc1[nH]c(=O)cc(C)c1C#N | inactive | 
66 | CC(=NNC(=S)N1CCN(C2CCCCCC2)CC1)c1ccccn1 | inconclusive: 89.1 µM [inhibitor, single point] | 
67 | COc1cc(OC)c(C(=O)C=Cc2ccc(OC)c(OC)c2)c(OC)c1 | inactive | 
68 | COc1cc(/C=C2/C(=O)ON=C2C)ccc1OCc1ccccc1F | inconclusive: 17.8 µM [inhibitor, partial curve, poor fit] | 
69 | COc1cccc(CN(C(=O)/C=C/c2ccco2)C2CCS(=O)(=O)C2)c1 (stereo unspecified) | inconclusive: 70.8 µM [inhibitor, partial curve, poor fit] | 
70 | O=C(Nc1ccccc1Br)c1ccccc1-c1ccccc1 | inactive | 
71 | COc1cccc(-c2ccc3c(N)c(C(=O)NC4CC4)sc3n2)c1 | inconclusive: 50.1 µM [inhibitor, partial curve, poor fit] | 
